Test results taken from patent publication US20080226682A1, “Immunoactive Compositions for Improved Oral Delivery of Vaccines and Therapeutic Agents” (PerOs Systems Technologies, Inc., priority 2007, published 2008).

B1: PSA: small pea (Pisum sativum) lectin (protein, UniProt P02867 31-217; P02867 218-275, looked up)
Lectin beta chain: TETTSFLITKFSPDQQNLIFQGDGYTTKEKLTLTKAVKNTVGRALYSSPIHIWDRETGNVANFVTSFTFVINAPNSYNVADGFTFFIAPVDTKPQTGGGYLGVFNSAEYDKTTQTVAVEFDTFYNAAWDPSNRDRHIGIDVNSIKSVNTKSWKLQNGEEANVVIAFNAATNVLTVSLTYPNSLEEEN
Lectin alpha chain: VTSYTLSDVVSLKDVVPEWVRIGFSATTGAEYAAHEVLSWSFHSELSGTSSSKQAADA
B2: PNA: peanut (Arachis hypogaea) lectin (protein, UniProt P02872 24-273, looked up)
Galactose-binding lectin: AETVSFNFNSFSEGNPAINFQGDVTVLSNGNIQLTNLNKVNSVGRVLYAMPVRIWSSATGNVASFLTSFSFEMKDIKDYDPADGIIFFIAPEDTQIPAGSIGGGTLGVSDTKGAGHFVGVEFDTYSNSEYNDPPTDHVGIDVNSVDSVKTVPWNSVSGAVVKVTVIYDSSTKTLSVAVTNDNGDITTIAQVVDLKAKLPERVKFGFSASGSLGGRQIHLIRSWSFTSTLITTTRRSIDNNEKKIMNMASA

System: avian immune cells
Test: Leukocyte mitogenic response (BrdU-based ELISA, stimulation index)
Assay type: cell-based
Settings: purified lectin at mitogen concentration (5-40 μg/mL), day 4

Molecule | Immunomodulatory effect (stimulation index class)
SBA: Soybean (Glycine max) Lectin | +++ (≧10 is assigned a value of +++ (strong mitogen))
B1 | +++ (≧10 is assigned a value of +++ (strong mitogen))
B2 | +++ (≧10 is assigned a value of +++ (strong mitogen))

System: avian immune cells
Test: not given
Settings: purified isoflavone

Molecule | Cytokine Secretion Profile (determined by RT-PCR)
COc1ccc(-c2coc3cc(O)cc(O)c3c2=O)cc1 [biochanin A, 5,7-dihydroxy 4′-methoxy isoflavone] | IL-4
O=c1c(-c2ccc(O)cc2)coc2cc(O)ccc12 [daidzein] | None
O=c1c(-c2ccc(O)cc2)coc2cc(O)cc(O)c12 [genistein, 4′5,7-trihydroxyisoflavone] | IFN-gamma
